Measured values taken from patent publication US10947285B2, “Compounds, compositions and uses thereof for improvement of bone disorders” (Amolyt Pharma, priority 2017, dated 2021).
At least one peptide structure holds a part that was inferred or is arguable (an end, a ring closure or a residue). Some entries share one result that the patent states for a list of compounds. Residues, ends and D or L forms follow the SMILES beside them.

Tests used:
[1] = Pharmacokinetic of HBD1 fragments in male Sprague Dawley rats after intravenous and subcutaneous injection; type: in vivo; conditions: 1 μmol net peptide/kg, listed as cyclic HBD1 (3-11)
Description: The peptides were reconstituted in saline (0.9% NaCl). Three male Sprague Dawley rats were used per group. Intravenous doses were administered into a lateral tail vein at the dose of 1 μmol net peptide/kg. Subcutaneous doses were administered into the right flank of each animal, also at the dose of 1 μmol net peptide/kg. Following dosing, serial whole blood samples (ca. 0.25 mL) were collected from a lateral tail vein into K2EDTA treated containers. Following each blood sample collection, samples were placed into a cooling block at 4° C. Samples were collected prior to dosing then at 2, 5, 15 and 30 minutes then 1, 2, 4, 6 and 8 and 24 hours post dose for intravenous injection and at 15 and 30 minutes then 1, 2, 4, 6, 8 and 24 hours post dose for subcutaneous injection.
Blood samples were centrifuged at 10000×g for 2 minutes at 4° C. and resultant plasma aspirated off into clean fully, labelled tubes. Plasma samples were snap frozen following aspiration then stored at −80° C. Peptides were extracted and analyzed as described in Example 9. The limits of quantification of these methods were 0.001 nmol/mL for cyclic HBD1 (3-11) and HBD1 (3-11) and 0.003 nmol/mL for HBD1 (1-13). All values below these limits of quantification were considered as zero.

[2] = tested on: MC-3T3 E1 clone 4 (CL4) osteoblast cells; assay: in vitro osteoblast differentiation bioassay (stimulation of osteocalcin protein synthesis); type: cell-based; conditions: separate experiment, osteoblast differentiation assay
Description: Each peptide was tested in a biologic assay measuring its ability to stimulate differentiation of osteoblast cells over a 18-21 day interval (Table 8) or a 14-15 day interval (Table 9) as assessed by the stimulation of osteocalcin protein synthesis. MC-3T3 E1 clone 4 (CL4) osteoblast cells were obtained from ATCC (Manassas, Va., USA). Cells were cultured in α-MEM containing 10% fetal bovine serum (FBS; Thermo Fisher Scientific, Pittsburgh, Pa., USA). After confluency, culture medium was changed to differentiation medium (DM), which contained 10% FBS plus 50 μg/mL ascorbic acid and 4 mM β-glycerol phosphate, with or without a test peptide (1 μg/mL in Table 8 or 1 μmol/L in Table 9). Fresh DM, with or without test peptide, was applied every 72 hours. The cell monolayers were lysed in a modified radioimmunoprecipitation assay (RIPA) buffer. Total cellular protein in the lysates was determined using BCA (Thermo Fisher Scientific, Rockford, Ill., USA). Cell proteins are separated on SDS-PAGE gel and transferred on PVDF membrane for analysis. Osteocalcin detection was performed using anti-osteocalcin antibody at 1:200 dilution (Santa Cruz Biotechnology, Inc, Santa Cruz, Calif., USA) or at 1:3000 dilution (NPT Inc., Chapel Hill, N.C., USA) and visualized using enhanced chemiluminescence (Thermo Fisher Scientific, Rockford, Ill., USA).
The peptide was tested at different concentrations in a biologic assay measuring its ability to stimulate differentiation of osteoblast cells over a 18 day interval as assessed by the stimulation of osteocalcin protein synthesis. MC-3T3 E1 clone 4 (CL4) osteoblast cells were obtained from ATCC (Manassas, Va., USA). Cells were cultured in α-MEM containing 10% fetal bovine serum (FBS; Thermo Fisher Scientific, Pittsburgh, Pa., USA). After confluency, culture medium was changed to differentiation medium (DM), which contained 10% FBS plus 50 μg/mL ascorbic acid and 4 mM β-glycerol phosphate, with or without an ascending dose of the peptide from 0.1 μg/mL to 4 μg/mL. Fresh DM, with or without the peptide, was applied every 72 hours. The cell monolayers were lysed in a modified radioimmunoprecipitation assay (RIPA) buffer. Total cellular protein in the lysates was determined using BCA (Thermo Fisher Scientific, Rockford, Ill., USA). Cell proteins are separated on SDS-PAGE gel and transferred on PVDF membrane for analysis. Osteocalcin detection was performed using anti-osteocalcin antibody at 1:200 dilution (Santa Cruz Biotechnology, Inc, Santa Cruz, Calif., USA) and visualized using enhanced chemiluminescence (Thermo Fisher Scientific, Rockford, Ill., USA).
Each peptide was tested in a biologic assay measuring its ability to stimulate differentiation of osteoblast cells over a 15 day interval as assessed by the stimulation of osteocalcin protein synthesis. MC-3T3 E1 clone 4 (CL4) osteoblast cells were obtained from ATCC (Manassas, Va., USA). Cells were cultured in α-MEM containing 10% fetal bovine serum (FBS; Thermo Fisher Scientific, Pittsburgh, Pa., USA). After confluency, culture medium was changed to differentiation medium (DM), which contained 10% FBS plus 50 μg/mL ascorbic acid and 4 mM β-glycerol phosphate, with or without a test peptide (1 μg/mL). Fresh DM, with or without test peptide, was applied every 72 hours for 15 days. The cell monolayers were lysed in a modified radioimmunoprecipitation assay (RIPA) buffer. Total cellular protein in the lysates was determined using BCA (Thermo Fisher Scientific, Rockford, Ill., USA). Cell proteins are separated on SDS-PAGE gel and transferred on PVDF membrane for analysis. Osteocalcin detection was performed using anti-osteocalcin antibody at 1:200 dilution (Santa Cruz Biotechnology, Inc, Santa Cruz, Calif., USA) and visualized using enhanced chemiluminescence (Thermo Fisher Scientific, Rockford, Ill., USA). […]

Compound: CC(C)C[C@@H]1NC(=O)CNC(=O)[C@H](CC(C)C)NC(=O)[C@H](Cc2c[nH]cn2)NC(=O)[C@H](CCCCN)NC(=O)[C@H](CCCCN)NC(=O)[C@@H]2CCCN2C(=O)[C@H](CCC(=O)O)NC(=O)[C@H](CCC(=O)O)NC1=O [SEQ ID NO: 77, Cyclic (HLGLEEPKK)] (cyclo(EEPKKHLGL))
- Tlast (last time point with detectable peptide) [1]: up to 8 h
- effect of cyclization on in vitro biological activity [2]: did not appear to change the in vitro biological activity
